{
  "source": "paper PMC4336329",
  "about": "(PLoS ONE, 2015)",
  "note": "Screen size: about 310,000 compounds; about 2,200 (0.71%) showed an effect of 50% or more. Effects have a minus sign here. The list shows a part of the results.",
  "data": [
    {"biological_target": "human ether-à-go-go-related gene (hERG) potassium channel (human, UniProt Q12809)", "sequence (Q12809 whole entry, looked up)": "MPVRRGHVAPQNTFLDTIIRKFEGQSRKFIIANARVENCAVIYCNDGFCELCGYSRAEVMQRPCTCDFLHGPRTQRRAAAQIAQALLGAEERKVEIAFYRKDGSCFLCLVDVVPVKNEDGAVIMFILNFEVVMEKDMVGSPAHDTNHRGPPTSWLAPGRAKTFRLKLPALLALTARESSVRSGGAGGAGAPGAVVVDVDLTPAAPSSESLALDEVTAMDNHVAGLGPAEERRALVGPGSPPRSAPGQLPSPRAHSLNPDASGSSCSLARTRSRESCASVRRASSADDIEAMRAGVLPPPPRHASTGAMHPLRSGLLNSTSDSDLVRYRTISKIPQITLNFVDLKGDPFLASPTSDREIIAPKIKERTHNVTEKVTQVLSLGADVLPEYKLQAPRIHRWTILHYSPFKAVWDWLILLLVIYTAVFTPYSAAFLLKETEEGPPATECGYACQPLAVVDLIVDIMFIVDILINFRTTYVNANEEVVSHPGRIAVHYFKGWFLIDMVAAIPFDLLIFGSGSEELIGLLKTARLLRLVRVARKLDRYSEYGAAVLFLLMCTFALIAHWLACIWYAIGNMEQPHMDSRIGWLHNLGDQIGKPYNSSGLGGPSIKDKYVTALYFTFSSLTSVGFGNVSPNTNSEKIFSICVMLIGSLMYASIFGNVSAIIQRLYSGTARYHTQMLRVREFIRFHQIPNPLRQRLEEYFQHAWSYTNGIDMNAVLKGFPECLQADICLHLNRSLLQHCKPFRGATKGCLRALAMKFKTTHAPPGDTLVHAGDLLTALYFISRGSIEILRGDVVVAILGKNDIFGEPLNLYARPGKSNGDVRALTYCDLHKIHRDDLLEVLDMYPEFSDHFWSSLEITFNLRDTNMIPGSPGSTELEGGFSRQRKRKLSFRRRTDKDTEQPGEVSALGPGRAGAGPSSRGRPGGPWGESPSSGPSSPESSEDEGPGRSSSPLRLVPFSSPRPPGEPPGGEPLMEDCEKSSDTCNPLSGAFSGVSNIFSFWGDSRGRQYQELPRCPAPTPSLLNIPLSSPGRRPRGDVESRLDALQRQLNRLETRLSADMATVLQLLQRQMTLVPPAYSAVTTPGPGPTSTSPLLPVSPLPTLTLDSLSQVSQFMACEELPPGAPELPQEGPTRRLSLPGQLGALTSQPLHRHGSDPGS", "assay": "primary screen, population patch clamp on CHO cells stably expressing hERG", "units": {"hERG current change (%, negative = inhibition) at 1uM": "%"}, "values": [
      {"compound": "CC1(C)CC(=O)C(N=Nc2cc(S(=O)(=O)N3CCOCC3)ccc2Cl)=C(O)C1", "hERG current change (%, negative = inhibition) at 1uM": 19.3},
      {"compound": "O=C(Nc1ccccc1C(=O)N1CCCC1)c1ccc(Cl)cc1Cl", "hERG current change (%, negative = inhibition) at 1uM": 10.3},
      {"compound": "CCOC(=O)CC1NC(=O)c2ccccc21", "note": "(stereo not shown)", "hERG current change (%, negative = inhibition) at 1uM": 4},
      {"compound": "S=c1[nH]nc(-c2ccc(Cl)cc2Cl)n1-c1ccc2c(c1)OCCO2", "hERG current change (%, negative = inhibition) at 1uM": 13},
      {"compound": "O=C(CCSc1ccc(Cl)cc1)NCc1ccccn1", "hERG current change (%, negative = inhibition) at 1uM": 10.4},
      {"compound": "Cc1nn(-c2ccccc2)c(N)c1N=Nc1ccccc1", "hERG current change (%, negative = inhibition) at 1uM": 5.06},
      {"compound": "COc1ccccc1CNC(=O)C(C)Sc1ccsc1[N+](=O)[O-]", "note": "(stereo not shown)", "hERG current change (%, negative = inhibition) at 1uM": 10.1},
      {"compound": "O=C(NCc1nc2ccccc2[nH]1)c1cccc(S(=O)(=O)N2CCOCC2)c1", "hERG current change (%, negative = inhibition) at 1uM": -0.27},
      {"compound": "O=C(COc1ccc(S(=O)(=O)N2CCCCC2)cc1)NCc1ccccn1", "hERG current change (%, negative = inhibition) at 1uM": 18.3},
      {"compound": "O=S(=O)(c1ccc(Cl)cc1)N1CCC(n2cccc2)CC1", "hERG current change (%, negative = inhibition) at 1uM": 17.8},
      {"compound": "CC12CCC(C(=O)n3c1nc1ccccc13)C2(C)C", "note": "(stereo not shown)", "hERG current change (%, negative = inhibition) at 1uM": 9.54},
      {"compound": "COc1ccc(OC2OC3COC(c4ccco4)OC3C(O)C2NC(C)=O)cc1", "note": "(stereo not shown)", "hERG current change (%, negative = inhibition) at 1uM": 8.3},
      {"compound": "N#Cc1c(NC(=O)C2CC(Cl)=CCC2C(=O)O)sc2c1CCCC2", "note": "(stereo not shown)", "hERG current change (%, negative = inhibition) at 1uM": 7.1},
      {"compound": "O=C(Nc1ccc(F)cc1)c1ccccc1NS(=O)(=O)N1CCCC1", "hERG current change (%, negative = inhibition) at 1uM": 2.58},
      {"compound": "COc1ccc(-c2nn(-c3ccccc3C)cc2CNCCc2cnc[nH]2)cc1F", "hERG current change (%, negative = inhibition) at 1uM": -12.9},
      {"compound": "COc1ccc2sc(NC(C)=O)nc2c1", "hERG current change (%, negative = inhibition) at 1uM": 5.13},
      {"compound": "O=C(O)CCC(=O)N1CCC(n2nnc3cc(C(F)(F)F)ccc32)CC1", "hERG current change (%, negative = inhibition) at 1uM": 11.4},
      {"compound": "COC(=O)c1cc(C(=O)c2cc(Br)ccc2O)coc1=N", "hERG current change (%, negative = inhibition) at 1uM": 24.7},
      {"compound": "CSc1nc(SC)c2c3c(oc2n1)COC(C)(C)C3", "hERG current change (%, negative = inhibition) at 1uM": 10.5},
      {"compound": "O=C(OCC(=O)N1CCc2ccccc21)c1ccncc1", "hERG current change (%, negative = inhibition) at 1uM": 0.712},
      {"compound": "CCN1C(=C(C#N)C#N)C=Cc2ccccc21", "hERG current change (%, negative = inhibition) at 1uM": 15.9},
      {"compound": "Cl.O=C(CCc1ccccc1)OCCN1CCOCC1", "hERG current change (%, negative = inhibition) at 1uM": 9.99},
      {"compound": "COc1ccc(CCN(C)C2CC(=O)N(c3ccccc3)C2=O)cc1OC", "note": "(stereo not shown)", "hERG current change (%, negative = inhibition) at 1uM": 5.35},
      {"compound": "O=C(Oc1cccc(C(=S)N2CCOCC2)c1)c1cccc(Cl)c1", "hERG current change (%, negative = inhibition) at 1uM": 17.5},
      {"compound": "O=C(O)CC1(CC(=O)Nc2ccc3c(c2)OCCCO3)CCCCC1", "hERG current change (%, negative = inhibition) at 1uM": 6.45},
      {"compound": "Cc1cc(S(=O)(=O)Nc2ccc(C(=O)NCCCN3CCCC3=O)cc2)ccc1F", "hERG current change (%, negative = inhibition) at 1uM": 8.54},
      {"compound": "Cc1ccc(S(=O)(=O)NCCCCCC(=O)Nc2cccc(C)c2)cc1", "hERG current change (%, negative = inhibition) at 1uM": 12.1},
      {"compound": "CC1CCCC(NCC(O)COC(c2ccc(F)cc2)c2ccc(F)cc2)C1C", "note": "(stereo not shown)", "hERG current change (%, negative = inhibition) at 1uM": -6.03},
      {"compound": "O=C(Cn1cnc2c(nnn2-c2ccccc2)c1=O)NCc1ccco1", "hERG current change (%, negative = inhibition) at 1uM": -0.107},
      {"compound": "COc1ccc(N=Cc2nc(-c3ccccc3)oc2OC(=O)c2ccccc2)cc1", "hERG current change (%, negative = inhibition) at 1uM": 9.59},
      {"compound": "COc1ccc(C(=O)N2CCC(c3ccccc3)CC2)c(OC)c1OC", "hERG current change (%, negative = inhibition) at 1uM": 7.25},
      {"compound": "Cc1cc(C(=O)Cn2nnc3ccccc3c2=O)c(C)n1Cc1cccs1", "hERG current change (%, negative = inhibition) at 1uM": 2.27},
      {"compound": "CCCC(=O)NC(c1ccc(Cl)cc1Cl)c1ccc2cccnc2c1O", "note": "(stereo not shown)", "hERG current change (%, negative = inhibition) at 1uM": 3.54},
      {"compound": "COc1ccccc1C1(O)CCN(CC(=O)Nc2c(C)nn(C)c2C)CC1", "hERG current change (%, negative = inhibition) at 1uM": 12.3},
      {"compound": "Cn1cnc(S(=O)(=O)NC2CCN(Cc3c(F)cccc3Cl)CC2)c1", "hERG current change (%, negative = inhibition) at 1uM": 0.971},
      {"compound": "Cc1cc(C)c2c(NC(=S)NC(=O)c3ccccc3)nn(C)c2n1", "hERG current change (%, negative = inhibition) at 1uM": 5.51},
      {"compound": "COc1ccc(CNC(=O)COc2ccc([N+](=O)[O-])cc2)cc1", "hERG current change (%, negative = inhibition) at 1uM": -23},
      {"compound": "COc1ccc(S(=O)(=O)N2CCC(C(=O)NC3(C)CCS(=O)(=O)C3)CC2)cc1OC", "note": "(stereo not shown)", "hERG current change (%, negative = inhibition) at 1uM": 20.2},
      {"compound": "Cc1ccc(/C=C/C(=O)Nc2ccc(S(=O)(=O)Nc3cc(C)nc(C)n3)cc2)cc1", "hERG current change (%, negative = inhibition) at 1uM": 13.5},
      {"compound": "Cc1cc(C)c(OCC(=O)Nc2nnn(C)n2)c(Br)c1", "hERG current change (%, negative = inhibition) at 1uM": 10.7},
      {"compound": "COc1ccc(NC(=O)CN2CCC(NC(=O)c3ccc(OC)cc3)CC2)cc1", "hERG current change (%, negative = inhibition) at 1uM": -17.1},
      {"compound": "c1ccc(Oc2cc(-n3cncn3)ncn2)cc1", "hERG current change (%, negative = inhibition) at 1uM": 4.41},
      {"compound": "CCOC(=O)C1=C(C)N=C2SCCC(=O)N2C1c1ccc(OC)cc1", "note": "(stereo not shown)", "hERG current change (%, negative = inhibition) at 1uM": 15.4}
    ]}
  ]
}
